Consider four compounds from US20150031733A1, “TETRAZOLINONE COMPOUNDS AND ITS USE” (SUMITOMO CHEMICAL COMPANY, LIMITED, priority 2012, published 2015).

Assay [1] deals with grapes downy mildew fungi. Briefly: Grapes downy mildew control test, foliar spray before inoculation. Conditions: 200 ppm, grapes (Seeding of Chardonnay).
In assay [2] the test system is tomato late blight fungi (Phytophthora infestans). The format is in vivo. Conditions: 500 ppm, foliar spray, tomato (cv; Patio).
The test system of assay [3] is soybean rust fungi (Phakopsora pachyrhizi). Nature of the assay: Soybean rust control test, foliar spray after inoculation. In kind it is in vivo. Conditions: 200 ppm, foliar spray one day after inoculation, soybean (cv; Kurosengoku).
Assay [4] deals with barley scald fungi (Rhynchosporium secalis). Briefly: Barley scald control test, foliar spray before inoculation. In kind it is in vivo. Conditions: 500 ppm, foliar spray 2 days before inoculation, barley (cv; Mikamo Golden).
The subject of assay [5] is barley net blotch fungi (Pyrenophora teres). Nature of the assay: Barley net blotch control test, foliar spray before inoculation. Conditions: 50 ppm, foliar spray 2 days before inoculation, barley (cv; Mikamo Golden). In kind it is in vivo.

In the case of `Cc1ccc(-c2csc(OCc3ccccc3-n3nnn(C)c3=O)n2)cc1` [Compound T012, 2-{[1-(4,5-dihydro-4-methyl-5-oxo-1H-tetrazole-1-yl)phenyl-2-yl]methyloxy}-4-(4-methylphenyl)thiazole], in assay [1], the “lesion area compared to the lesion area in untreated plants” value (shortened to “lesion area compared to the lesion area”) is recorded as not above 30%.

Consider `Cc1cccc(-n2nnn(C)c2=O)c1COc1nc(C(C)(C)C)cs1` [Compound T047, 2-{[1-(4,5-dihydro-4-methyl-5-oxo-1H-tetrazole-1-yl)-3-methylphenyl-2-yl]methyloxy}-4-(1,1-dimethylethyl)thiazole], for which the “lesion area compared to the lesion area” value in assay [2] and in assay [3] was not above 30% each time.

Turning to `Cn1nnn(-c2ccccc2COc2nc(C(C)(C)C)cs2)c1=O` [Compound T025, 2-{[1-(4,5-dihydro-4-methyl-5-oxo-1H-tetrazole-1-yl)phenyl-2-yl]methyloxy}-4-(1,1-dimethylethyl)thiazole], in assay [4], the “lesion area compared to the lesion area” value was not above 10%.

On to “4-((1-(4,5-dihydro-4-methyl-5-oxo-1H-tetrazole-1-yl)-2-phenyl-2-yl]methyloxy}-4-phenylthiazole [control compound]”, for which the “lesion area compared to the lesion area” value in assay [5] was not below 70%.
